This note sets out measurements from ChEMBL document CHEMBL1201862, “PubChem BioAssay data set” (2004).

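Values below derive from 48-hour exposures of cells grown in 96-well plates, with endpoints linearly interpolated between the two concentrations bracketing the appropriate inhibition level. The concentration for 50% growth inhibition is given as GI50.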 Calls of active or inactive are those of the source. Rule as the data show it: active = GI50 up to about 1.1 µM and inactive = higher.

This assay deals with NCI-H322M. Nature of the assay: NCI-60 cell line screen, 48 h.
On to `O=NN(CCCl)C(=O)NC1CCSc2ccccc21` (stereo not drawn), for which the GI50 was inactive: > 100 µM.

In the case of `Cc1c2cnccc2c(C)c2c1c1ccccc1n2CCOC(=O)c1ccccc1`, the GI50 was inactive: 9.14 µM.

As to `CCCc1cc(COC)c(C#N)c(O)n1`, the GI50 is inactive: > 100 µM.

For `COCCCN(Cc1cc(OC)c(OC)c(OC)c1)C(=S)Nc1cccc(Cl)c1`, the GI50 was inactive: 26.1 µM.

Take `CCOc1ccccc1NC(=O)C1=C(C)NC(C)=C(C(=O)Nc2ccccc2OCC)C1c1cccc([N+](=O)[O-])c1`: the GI50 is inactive: 78.2 µM.

`C=CCn1c(-c2ccc(Cl)cc2Cl)cs/c1=N\c1c(C)n(C)n(-c2ccccc2)c1=O`: the GI50 was inactive: 14.6 µM.

On to `CCCCCCCCCCCCCCCCP(=O)(OC)OC`, for which the GI50 was inactive: 17.2 µM.

In the case of `CCOC(=O)c1c(-c2ccccc2)nc2c(OC)nccn12`, the GI50 was inactive: > 100 µM.

For the compound `O=CC[C@H]1CCc2ccccc2C12CCC(=O)CC2`, the GI50 was inactive: > 100 µM.

For the compound `Cn1c2c(c3ccccc31)CCN1C(=O)CN(C(=O)C3CCCCC3)CC21` (stereo not drawn), the GI50 was inactive: > 100 µM.

Regarding `Oc1c(Br)cc(/C=C/c2cccc(/C=C/c3cc(Br)c(O)c(Br)c3)n2)cc1Br`, the GI50 was inactive: 13.9 µM.

As to `NCCCN(CCCN)CCc1cn(C(=O)c2ccccc2)cn1`, the GI50 was inactive: 13.1 µM.

For the compound `CCOC(=O)C(NC(=O)CC(C)C)(Nc1ccc(C(F)(F)F)cc1)C(F)(F)F` (stereo not drawn), the GI50 was inactive: > 100 µM.

Consider `CCC(C)C(=O)OC1CC2(C)C(c3ccoc3)OC(=O)CC23OC2(C)OC34C(OC(=O)C(C)C)C3(O)C(OC(=O)C5(C)OC5C)C5(C)CC3(O)C(C)(C5CC(=O)OC)C14O2` (stereo not drawn), for which the GI50 is inactive: > 100 µM.

Consider `O=c1onc2n1-c1ccc(Cl)cc1C(=S)N1CSCC21` (stereo not drawn), for which the GI50 was inactive: 42.7 µM.

As for `CSc1c(CC(=O)O)n(Cc2ccccc2)c2ccccc12`, the GI50 is inactive: > 100 µM.

With `COc1ccc(C2COc3c(ccc(OC)c3OC)C2=O)cc1OC` (stereo not drawn), the GI50 was inactive: > 100 µM.

On to `COc1ccc(/N=N/c2c(C)c(C#N)c(=S)n(C3OC(COC(C)=O)C(OC(C)=O)C(OC(C)=O)C3OC(C)=O)c2-c2ccccc2)cc1` (stereo not drawn), for which the GI50 was inactive: 12.9 µM.

Regarding `CN(CCc1ccccn1)C(=S)N/N=C/c1ccccn1`, the GI50 is active: 0.0559 µM.

In the case of `NC12c3c4cccc3Oc3cccc(c31)Oc1cccc(c12)O4`, the GI50 was inactive: > 50 µM.

On to `CN(C)c1nc(N(C)c2ccccc2)[s+]s1`, for which the GI50 is inactive: > 100 µM.

For the compound `CC1CC/C(=C\c2ccc(N(C)C)cc2)C(=O)/C1=C/c1ccc(N(C)C)cc1` (stereo not drawn), the GI50 was inactive: > 100 µM.

On to `CCN(CCO)CCNc1ccc(C)c2sc3ccccc3c(=O)c12`, for which the GI50 was inactive: 4.86 µM.

For the compound `CC(C)(C)n1c(=O)[nH]c(=O)n1C(C)(C)C`, the GI50 was inactive: > 100 µM.

Take `Nc1ncnc2c1ncn2C1OC(CO)C(O)C1NS(=O)(=O)c1ccccc1` (stereo not drawn): the GI50 is inactive: > 100 µM.

For the compound `O=C1CC(C(O)(C(F)(F)F)C(F)(F)Cl)CCC1C(O)(C(F)(F)F)C(F)(F)Cl` (stereo not drawn), the GI50 was inactive: > 10 µM.

As to `Cc1ccc(C)c(NC(=O)C(=O)C2C(=O)C3=C(CC2(C)C)Nc2ccccc2S3)c1` (stereo not drawn), the GI50 was inactive: > 100 µM.

Turning to `COc1ccc2c(c1)CCC(CN1CCN(CCOC(c3ccc(F)cc3)c3ccc(F)cc3)CC1)C2O` (stereo not drawn), the GI50 is inactive: 15.6 µM.

With `CCN(CC)CCCC(C)Nc1c2cc(OC)cc(C)c2nc2c(C)c(Cl)ccc12` (stereo not drawn), the GI50 was inactive: 1.58 µM.

For `O=c1cc(-c2ccccc2)oc2cc(OCCCCCCCCCCOc3ccc4c(=O)cc(-c5ccccc5)oc4c3)ccc12`, the GI50 was inactive: > 100 µM.

Consider `[O-][S+]1c2ccccc2N=C(c2cccs2)CC1c1ccccc1O` (stereo not drawn), for which the GI50 is inactive: > 100 µM.

With `NC1CC(N)c2c(Br)sc(Br)c21` (stereo not drawn), the GI50 was inactive: > 100 µM.

Consider `COc1cc2c(cc1OC)C(=O)/C(=C/c1ccc(Cl)cc1)CC2`, for which the GI50 was inactive: > 10 µM.

In the case of `CN(C)C(=O)/C=C/c1c[nH]c(=O)[nH]c1=O`, the GI50 was inactive: > 500 µM.

With `COc1ccccc1NC(=S)N/N=C/c1ccccn1`, the GI50 was active: 0.392 µM.

For `C=CN(C=C)C(=O)Cn1cc(-c2ccccc2)nn1`, the GI50 was inactive: > 100 µM.

On to `Cc1ccc(S(=O)(=O)n2cc(C#N)c(C#N)c2)cc1`, for which the GI50 is inactive: 44.4 µM.

For the compound `CC1=NN(C(=O)Nc2ccc(Cl)cc2)C(=O)C2CCC(=O)N12` (stereo not drawn), the GI50 is inactive: > 100 µM.

Turning to `CCN(CCCOc1ccccc1)CCN(CC)CCCOc1ccccc1`, the GI50 is inactive: 15.6 µM.

With `O=C(CSc1nc(-c2ccccc2)c(-c2ccccc2)[nH]1)NNC(=S)Nc1ccccc1`, the GI50 was inactive: 89.1 µM.

`CCC(Oc1ccc(OC)c2ccccc(=O)c12)C(=O)O` (stereo not drawn): the GI50 was inactive: > 100 µM.

In the case of `CC1=C[C@H]2c3c([nH]c4ccccc34)C(c3c[nH]c4ccccc34)[C@H]2CC1` (stereo partly drawn), the GI50 was inactive: 10.8 µM.

In the case of `COc1cc(NCc2ccc3nc(N)nc(N)c3c2C)cc(OC)c1OC`, the GI50 was active: 0.538 µM.

With `CCCCCCCCCCC(C(=O)O)C1(C(=O)O)CCC(=O)O1` (stereo not drawn), the GI50 was inactive: > 100 µM.

Turning to `Cc1cc(N(CCC#N)CCC#N)ccc1C(/N=N/c1ccc(Cl)cc1)=N\NC(=O)c1cc(Cl)ccc1O`, the GI50 is inactive: > 100 µM.

Take `CN1CC[C@]2(c3cccc(O)c3)CC(=O)/C(=C/c3ccc(Cl)c(Cl)c3)[C@@H]1C2`: the GI50 is inactive: 1.77 µM.

In the case of `CS/C(=N\C#N)NC1CC(n2cc(C)c(=O)[nH]c2=O)OC1CO` (stereo not drawn), the GI50 was inactive: > 100 µM.

Take `Clc1cc2nn(C3CCCCO3)nc2cc1Cl` (stereo not drawn): the GI50 is inactive: > 100 µM.

For the compound `CC(C)[Si](OC12CCC(CC1O)CC2CO)(C(C)C)C(C)C` (stereo not drawn), the GI50 is inactive: 13.2 µM.

Take `COc1ccc(C2[C@H]3C(=O)N(c4ccc(Cc5ccc(N6C(=O)[C@@H]7ON(c8ccccc8)C(c8ccc(OC)cc8)[C@@H]7C6=O)cc5)cc4)C(=O)[C@H]3ON2c2ccccc2)cc1` (stereo partly drawn): the GI50 is inactive: > 100 µM.

As to `CN(CCC(=O)N1CC(CCl)c2ccc([N+](=O)[O-])cc21)CCC(=O)N1CC(CCl)c2ccc([N+](=O)[O-])cc21` (stereo not drawn), the GI50 was inactive: 42.9 µM.

In the case of `COc1c(OC(C)=O)c(OC(C)=O)cc2c1-c1ccc(OC)c(=O)cc1C(NC(C)=O)CC2` (stereo not drawn), the GI50 was active: 0.42 µM.

For `C=CCO[C@H]1CC[C@@]2(C)C(CC[C@]3(C)C2CC=C2[C@@H]4[C@@H](C)C(C)CC[C@]4(C(=O)O)CCC23C)C1(C)C` (stereo partly drawn), the GI50 was inactive: 17.3 µM.

As to `NC(CO)c1ccccc1` (stereo not drawn), the GI50 was inactive: > 100 µM.

Turning to `COc1cc2c(c(OC)c1OC)-c1ccc(SC)c(=O)cc1[C@@H](NCc1ccc([N+](=O)[O-])cc1)CC2`, the GI50 was active: 0.00396 µM.

On to `CCCCCCCCCCCC[C@@H](O)[C@H]1CCC([C@H](O)CCCCC(=O)CCCCCCCC2=C[C@H](C)OC2=O)O1` (stereo partly drawn), for which the GI50 is inactive: > 14.3 µM.

Take `COc1cc(/C=C2\CC3C4CC[C@H]5C[C@@H](O)CC[C@]5(C)C4CC[C@]3(C)C2=O)cc(OC)c1OC` (stereo partly drawn): the GI50 was inactive: 41.2 µM.

Take `Nc1cccc2c1C(=O)c1cccc(N)c1C2=O`: the GI50 is inactive: > 100 µM.
